In patent US12144864B2, “Tubulysins and protein-tubulysin conjugates” (Regeneron Pharmaceuticals, Inc., priority 2018, dated 2024):
The name of at least one read-out is uncertain.

Tested on: HCT15 cells
Assay type: cell-based, human
Details: ratio of IC50 without Verapamil to IC50 with Verapamil
Protocol: To test the ability of the disclosed tubulysin payloads to kill human cell lines, an in vitro cytotoxicity assay was performed. In vitro cytotoxicity of the disclosed payloads, as well as reference compounds, were evaluated using the CellTiter-Glo Assay Kit (Promega, Cat #G7573), in which the quantity of ATP present is used to determine the number of viable cells in culture. For the assay, C4-2, HEK293, or T47D cells were seeded at 4000 cells/well on Nunclon white 96-well plates in complete growth medium (DME high glucose:Ham's F12 at 4:1, 10% FBS, 100 units/ml Penicillin, 100 ug/ml streptomycin, 53 ug/ml glutatmine, 10 ug/ml insulin, 220 ng/ml biotin, 12.5 pg/ml T3, 12.5 ug/ml Adenine, 4 ug/ml transferrin for C42 cells; DME high glucose, 10% FBS, 100 units/ml Penicillin, 100 ug/ml streptomycin, 53 ug/ml glutatmine for HEK293; RPMI, 10% FBS, 100 units/ml Penicillin, 100 ug/ml streptomycin, 53 ug/ml glutatmine, 10 ug/ml insulin, 10 mM HEPEs, 200 nM Sodium Pyruvate for T47D cells) and grown overnight at 37° C. in 5% CO2. For cell viability curves, 1:3 serially diluted payloads were added to the cells at final concentrations ranging from 100 nM to […], including a no treatment control group, and were then incubated for 5 days. After the 5-day incubation, cells were incubated at room temperature with 100 μL of CellTiter-Glo reagents for 10 minutes. Relative luminescence units (RLU) were determined on a Victor plate reader (PerkinElmer). The IC50 values were determined from a four-parameter logistic equation over a 10-point response curve (GraphPad Prism). All IC50 values are expressed in molar (M) concentration. The percent cell killing (% kill) at the maximum concentration tested was estimated from the following formula (100−% viable cells). Averages±standard deviation (SD) are included where replicate experiments were performed.
In vitro cytotoxicity of the disclosed payloads as well as reference compounds were evaluated similarly as described above except using 1000 HCT15 cells, a colorectal carcinoma cell line, in growth medium (RPMI, 10% FBS, 100 units/ml Penicillin, 100 ug/ml streptomycin, 53 ug/ml glutatmine) with or without 5 ug/mL of Verapamil.

SMILES	HCT15 IC50/HCT-15 + Verapamil IC50
CCCCCON(C(=O)[C@@H](NC(=O)[C@H]1CCCCN1C)[C@@H](C)CC)[C@H](C[C@@H](OC(C)=O)c1nc(C(=O)N[C@@H](Cc2ccc(N)cc2)CC(C)(C)C(=O)O)cs1)C(C)C [Vb, (4S)-4-({2-[(1R,3R)-1-(Acetyloxy)-4-methyl-3-[(2S,3S)-3-methyl-2-{[(2R)-1-methylpiperidin-2-yl]formamido}-N-(pentyloxy)pentanamido]pentyl]-1,3-thiazol-4-yl}formamido)-5-(4-aminophenyl)-2,2-dimethylpentanoic acid]	2.8 ± 0.9
CC[C@H](C)[C@H](NC(=O)[C@H]1CCCCN1C)C(=O)N(OCCCOCc1ccc(N)cc1)[C@H](C[C@@H](OC(C)=O)c1nc(C(=O)N[C@@H](Cc2ccc(O)cc2)C[C@H](C)C(=O)O)cs1)C(C)C [Vj, (2S,4R)-4-(2-((8R,10R)-1-(4-Aminophenyl)-8-isopropyl-7-((2S,3S)-3-methyl-2-((R)-1-methylpiperidine-2-carboxamido)pentanoyl)-12-oxo-2,6,11-trioxa-7-azatridecan-10-yl)thiazole-4-carboxamido)-5-(4-hydroxyphenyl)-2-methylpentanoic acid]	>2.6
CC[C@H](C)[C@H](NC(=O)[C@H]1CCCCN1C)C(=O)N(CCCCc1cn(CCCC(=O)O)nn1)[C@H](C[C@@H](OC(C)=O)c1nc(C(=O)N[C@@H](Cc2ccc(N)cc2)CC(C)(C)C(=O)O)cs1)C(C)C [IVn, (S)-4-(2-((1R,3R)-1-Acetoxy-3-((2S,3S)—N-(4-(1-(3-carboxypropyl)-1H-1,2,3-triazol-4-yl)butyl)-3-methyl-2-((R)-1-methylpiperidine-2-carboxamido)pentanamido)-4-methylpentyl)thiazole-4-carboxamido)-5-(4-aminophenyl)-2,2-dimethylpentanoic acid]	1.0
CC[C@H](C)[C@H](NC(=O)[C@H]1CCCCN1C)C(=O)N(CCCCc1cn(Cc2ccccc2)nn1)[C@H](C[C@@H](OC(C)=O)c1nc(C(=O)N[C@@H](Cc2ccc(N)cc2)CC(C)(C)C(=O)O)cs1)C(C)C [IVo, (S)-4-(2-((1R,3R)-1-Acetoxy-3-((2S,3S)—N-(4-(1-benzyl-1H-1,2,3-triazol-4-yl)butyl)-3-methyl-2-((R)-1-methylpiperidine-2-carboxamido)pentanamido)-4-methylpentyl)thiazole-4-carboxamido)-5-(4-aminophenyl)-2,2-dimethylpentanoic acid]	3.5
C#CCCCON(C(=O)[C@@H](NC(=O)[C@H]1CCCCN1C)[C@@H](C)CC)[C@H](C[C@@H](OC(=O)NCC)c1nc(C(=O)N[C@@H](Cc2ccc(N)cc2)CC(C)(C)C(=O)O)cs1)C(C)C [VIf, (4S)-5-(4-Aminophenyl)-4-({2-[(1R,3R)-1-[(ethylcarbamoyl)oxy]-4-methyl-3-[(2S,3S)-3-methyl-2-{[(2R)-1-methylpiperidin-2-yl]formamido}-N-(pent-4-yn-1-yloxy)pentanamido]pentyl]-1,3-thiazol-4-yl}formamido)-2,2-dimethylpentanoic acid]	24.1
C#CCCCCN(C(=O)[C@@H](NC(=O)[C@H]1CCCCN1C)[C@@H](C)CC)[C@H](C[C@@H](OC(C)=O)c1nc(C(=O)N[C@@H](Cc2ccc(N)cc2)CC(C)(C)C(=O)O)cs1)C(C)C [IVd, (4S)-4-({2-[(1R,3R)-1-(Acetyloxy)-3-[(2S,3S)—N-(hex-5-yn-1-yl)-3-methyl-2-{[(2R)-1-methylpiperidin-2-yl]formamido}pentanamido]-4-methylpentyl]-1,3-thiazol-4-yl}formamido)-5-(4-aminophenyl)-2,2-dimethylpentanoic acid]	1.57 ± 0.5
